PMC12481580 (Journal of Medicinal Chemistry, 2025)
Read-outs that look alike come from different tables or passages of the source. Values belong to the compound of their own block, whether it stands above or below them. *1 amine or outer side, *2 acyl side, *3 side chain or, on linkers, in order; H or OH if unused. Where a SMILES comes first, the peptide text is derived from it. [ ]: non-standard residue; d: D form. X3 = CCC(=O)NCCCCNC(=O)/N=C(\N)NCCC[C@H](N[*:1])C(=O)[*:2]

What was measured:
NTS1R [1] = biological target: T1, NTS1R (Homo sapiens, UniProt P30989); conditions: for EC50: enhancement of NTS1R binding of 21, HT-29 cells, 23 °C, 21 c = 0.01 nM, biphasic curve
NTS1R [2] = biological target: T1, NTS1R; test: flow cytometric competition binding at HT-29 cells using 19 or 21 as labeled probe; conditions: for Hill coefficient of the displacement curve: 4-parameter logistic fit, mean ± SEM
NTS1R [3] = biological target: T1, NTS1R; conditions: cited from earlier work
NTS2R = NTS2R (Homo sapiens, UniProt O95665); test: radioligand competition binding with [3H]UR-MK300 at membranes of HEK293T-hNTS2R cells; conditions: [3H]UR-MK300, membranes of HEK293T-hNTS2R cells; read-out: NTS2R pK i ± SEM (converted)
UniProt O95665, sequence (O95665 whole entry): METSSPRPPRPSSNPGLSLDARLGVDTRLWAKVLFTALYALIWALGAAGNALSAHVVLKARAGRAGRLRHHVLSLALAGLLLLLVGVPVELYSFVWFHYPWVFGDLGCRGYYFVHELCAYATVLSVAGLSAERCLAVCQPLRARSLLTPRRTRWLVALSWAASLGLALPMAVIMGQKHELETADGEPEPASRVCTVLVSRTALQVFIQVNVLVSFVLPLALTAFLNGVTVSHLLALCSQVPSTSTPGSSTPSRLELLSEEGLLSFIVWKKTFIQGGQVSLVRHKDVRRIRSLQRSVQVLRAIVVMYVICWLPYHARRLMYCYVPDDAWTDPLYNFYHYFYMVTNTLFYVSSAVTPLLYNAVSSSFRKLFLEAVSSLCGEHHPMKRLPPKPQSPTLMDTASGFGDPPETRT

T1 sequence (P30989 whole entry): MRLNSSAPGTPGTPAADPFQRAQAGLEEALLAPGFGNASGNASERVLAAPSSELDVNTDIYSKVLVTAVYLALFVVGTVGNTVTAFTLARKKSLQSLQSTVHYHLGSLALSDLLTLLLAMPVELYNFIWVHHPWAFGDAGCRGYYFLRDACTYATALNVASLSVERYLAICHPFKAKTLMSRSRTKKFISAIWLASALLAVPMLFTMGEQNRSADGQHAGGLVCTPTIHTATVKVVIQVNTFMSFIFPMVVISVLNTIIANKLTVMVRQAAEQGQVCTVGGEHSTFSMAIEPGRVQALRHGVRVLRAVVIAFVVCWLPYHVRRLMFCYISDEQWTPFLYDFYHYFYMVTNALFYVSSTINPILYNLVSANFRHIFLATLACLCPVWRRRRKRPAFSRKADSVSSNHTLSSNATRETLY

EC50 (NTS1R [1]; pEC50(high)): 0.0427 nM
EC50 (NTS1R [1]; pEC50(low)): 52.5 nM
Emax at 10 pM (NTS1R [1]; read-out: E max (difference between lower and upper plateau)): 88%
Compound: COc1ccccc1C1CCN(c2nc(C3(F)CC3)nc3ccc(N(C)CCO)cc23)CC1 [SBI-553]

Compound: COc1cccc(OC)c1-c1cc(C(=O)NC2(C(=O)O)C3CC4CC(C3)CC2C4)nn1-c1ccnc2cc(Cl)ccc12 (centres unmarked) [SR48692]
Hill coefficient of the displacement curve (NTS1R [2]; 21 as labeled probe): −0.55 ± 0.06
Ki (NTS1R [2]; flow cytometry, HT-29 cells, 23 °C, 0.1 nM 21, 180 min, read-out: pK i, 21 as labeled probe (converted)): 3.24 nM
Ki (NTS1R [2]; flow cytometry, HT-29 cells, 23 °C, 0.3 nM 19, 120 min, read-out: pK i, 19 as labeled probe (converted)): 5.62 nM
pK i, literature (NTS1R [3]; Reported K i values were converted to pK i values, ref not given): 8.07

Compound: CCC(=O)NCCCCNC(=O)/N=C(\N)NCCC[C@H](N)C(=O)N[C@@H](CCCNC(=N)N)C(=O)N1CCC[C@H]1C(=O)N[C@@H](Cc1ccc(O)cc1)C(=O)N[C@H](C(=O)N[C@@H](CC(C)C)C(=O)O)[C@@H](C)CC [UR-MK300] (H-[X3]RPYIL-OH)
Ki (NTS1R [2]; pK i, 19 as labeled probe, flow cytometry, HT-29 cells, 23 °C, 0.3 nM 19, 120 min): 0.141 nM
Ki (NTS1R [2]; pK i, 21 as labeled probe, flow cytometry, HT-29 cells, 23 °C, 0.1 nM 21, 180 min): 0.0891 nM

Compound: CC[C@H](C)[C@H](NC(=O)[C@@H](NC(=O)[C@@H]1CCCN1C(=O)[C@H](CCCNC(=N)N)NC(=O)[C@H](CCCNC(=N)NC(=O)NCCCCNC(=O)CCCCCN1\C(=C/C=C/C=C/C2=[N+](CCCCS(=O)(=O)[O-])c3ccccc3C2(C)C)C(C)(C)c2cc(S(=O)(=O)O)ccc21)NC)C(C)(C)c1ccc(O)cc1)C(=O)N[C@@H](C[Si](C)(C)C)C(=O)O [compound 21, N ^α-Methyl-N ^ω-{[4-(N-{6-3H-[2-(5–3H-(1-(4-sulfonatobutyl)-3,3-dimethyl)indol-2-ylidenepent-1,3-dienyl)-3,3-dimethyl-5-sulfo]indol-1-ium-1-yl}hexanoyl)-aminobutyl]aminocarbonyl}Arg-Arg-Pro-β,β-dimethyl-L-Tyr-Ile-β-trimethylsilyl-Ala Tris(hydrotrifluoroacetate)]
Ki (NTS2R): 0.724 nM

Hill coefficient of the displacement curve (NTS1R [2]; 21 as labeled probe): −0.63 ± 0.02
pK i, 21 as labeled probe (NTS1R [2]; flow cytometry, HT-29 cells, 23 °C, 0.1 nM 21, 180 min): 10.14 ± 0.08
pK i, 19 as labeled probe (NTS1R [2]; flow cytometry, HT-29 cells, 23 °C, 0.3 nM 19, 120 min): 9.70 ± 0.1
Compound: SR142948

Compound: neuromedin N: hexapeptide, endogenous NTS1R agonist
Ki (NTS1R [3]; ref Skrzydelski et al.): 1.9 nM
